The other results are listed elsewhere or left out.
Key:
Experiment in all cases: glycan array binding signal (z-score within array); higher = stronger binding
Conditions in all cases: glycan notation: IUPAC condensed, linker removed
[1] = biological target: Gal(b1-3)[Neu5Ac(a2-6)]GalNAc
How it was run: (§1)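 The binding signal is a Z-score computed within each array and averaged over linkers. Arrays of the same protein sequence at different concentrations or buffers were also averaged together. Data originate from 3228 arrays in the Consortium for Functional Glycomics database, kept only where the protein sequence was available.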

[2] = biological target: Gal(b1-3)[Neu5Ac(a2-6)]GlcNAc
How it was run: as §1

[3] = biological target: Gal(b1-3)[Neu5Ac(a2-6)]GlcNAc(a1-4)Gal(b1-4)Glc
How it was run: as §1

[4] = biological target: Gal(b1-3)[Neu5Ac(b2-6)]GlcNAc
How it was run: as §1

[5] = biological target: Gal(b1-4)GalNAc(a1-3)[Fuc(a1-2)]Gal(b1-4)GlcNAc
How it was run: as §1

[6] = biological target: Gal(b1-4)GalNAc(b1-3)[Fuc(a1-2)]Gal(b1-4)GlcNAc
How it was run: as §1

[7] = biological target: Gal(b1-4)Glc
How it was run: as §1

[8] = biological target: Gal(b1-4)Glc6S
How it was run: as §1

[9] = biological target: Gal(b1-4)GlcNAc
How it was run: as §1

[10] = biological target: Gal(b1-4)GlcNAc(b1-2)Man(a1-3)[Gal(b1-4)GlcNAc(b1-2)Man(a1-6)]Man(b1-4)GlcNAc(b1-4)GlcNAc
How it was run: as §1

[11] = biological target: Gal(b1-4)GlcNAc(b1-3)Gal(b1-4)Glc
How it was run: as §1

[12] = biological target: Gal(b1-4)GlcNAc(b1-3)Gal(b1-4)GlcNAc
How it was run: as §1

[13] = biological target: Gal(b1-4)GlcNAc(b1-3)Gal(b1-4)GlcNAc(b1-3)Gal(b1-4)GlcNAc
How it was run: as §1

[14] = biological target: Gal(b1-4)GlcNAc(b1-3)Gal(b1-4)[Fuc(a1-3)]GlcNAc(b1-3)Gal(b1-4)[Fuc(a1-3)]GlcNAc
How it was run: as §1

[15] = biological target: Gal(b1-4)GlcNAc(b1-3)GalNAc
How it was run: as §1

[16] = biological target: Gal(b1-4)GlcNAc(b1-3)[Gal(b1-4)GlcNAc(b1-6)]GalNAc
How it was run: as §1

[17] = biological target: Gal(b1-4)GlcNAc(b1-6)GalNAc
How it was run: as §1

[18] = biological target: Gal(b1-4)GlcNAc(b1-6)[Gal(b1-3)]GalNAc
How it was run: as §1

[19] = biological target: Gal(b1-4)GlcNAc(b1-6)[Gal(b1-3)]GlcNAc
How it was run: as §1

[20] = biological target: Gal3S(b1-3)GalNAc
How it was run: as §1

[21] = biological target: Gal3S(b1-3)GlcNAc
How it was run: as §1

[22] = biological target: Gal3S(b1-3)[Fuc(a1-4)]GlcNAc
How it was run: as §1

[23] = biological target: Gal3S(b1-4)Glc
How it was run: as §1

[24] = biological target: Gal3S(b1-4)Glc6S
How it was run: as §1

[25] = biological target: Gal3S(b1-4)GlcNAc
How it was run: as §1

[26] = biological target: Gal3S(b1-4)GlcNAc6S
How it was run: as §1

[27] = biological target: Gal3S6S(b1-4)GlcNAc
How it was run: as §1

[28] = biological target: Gal3S6S(b1-4)GlcNAc6S
How it was run: as §1

[29] = biological target: Gal4S(b1-4)GlcNAc
How it was run: as §1

[30] = biological target: Gal4S6S(b1-4)GlcNAc
How it was run: as §1

B1: chitinase 3-like protein 2 (Homo sapiens) (protein)
chain: YKLVCYFTQWSQDRQEPGKFTPENIDPFLCSHLIYSFASIENNKVIIKDKSEVMLYQTINSLKTKNPKLKILLSIGGYLFGSKGFHPMVDSSTSRLEFINSIILFLRNHNFDGLDVSWIYPDQKENTHFTVLIHELAEAFQKDFTKSTKERLLLTAGVSAGRQMIDNSYQVEKLAKDLDFINLLSFDFHGSWEKPLITGHNSPLSKGWQDRGPSSYYNVEYAVGYWIHKGMPSEKVVMGIPTYGHSFTLASAETTVGAPASGPGAAGPITESSGFLAYYEICQFLKGAKITRLQDQQVPYAVKGNQWVGYDDVKSMETKVQFLKNLNLGGAMIWSIDMDDFTGKSCNQGPYPLVQAVKRSLGSL
- glycan array binding signal (z-score) [1]: -0.26
- glycan array binding signal (z-score) [2]: -0.12
- glycan array binding signal (z-score) [3]: -0.201
- glycan array binding signal (z-score) [4]: -0.232
- glycan array binding signal (z-score) [5]: -0.181
- glycan array binding signal (z-score) [6]: -0.197
- glycan array binding signal (z-score) [7]: -0.037
- glycan array binding signal (z-score) [8]: -0.256
- glycan array binding signal (z-score) [9]: -0.237
- glycan array binding signal (z-score) [10]: 0.314
- glycan array binding signal (z-score) [11]: 0.135
- glycan array binding signal (z-score) [12]: -0.202
- glycan array binding signal (z-score) [13]: -0.24
- glycan array binding signal (z-score) [14]: -0.183
- glycan array binding signal (z-score) [15]: -0.183
- glycan array binding signal (z-score) [16]: -0.138
- glycan array binding signal (z-score) [17]: -0.203
- glycan array binding signal (z-score) [18]: -0.283
- glycan array binding signal (z-score) [19]: -0.165
- glycan array binding signal (z-score) [20]: -0.147
- glycan array binding signal (z-score) [21]: -0.006
- glycan array binding signal (z-score) [22]: -0.094
- glycan array binding signal (z-score) [23]: -0.212
- glycan array binding signal (z-score) [24]: -0.176
- glycan array binding signal (z-score) [25]: -0.096
- glycan array binding signal (z-score) [26]: -0.081
- glycan array binding signal (z-score) [27]: -0.179
- glycan array binding signal (z-score) [28]: -0.151
- glycan array binding signal (z-score) [29]: -0.208
- glycan array binding signal (z-score) [30]: -0.066

Reference: the supplement of paper PMC8728848
